Data on 167 variants can be found in the RNAGym collection of RNA variant scans (doi:10.1101/gad.245936.114).

Variants at the floor of the assay are shown more often than the library holds them.

First the molecules themselves.
B1: tRNA (parent)
chain: CUCUCGGUAGCCAAGUUGGUUUAAGGCGCAAGACUUUAAUUUAUCACUACGAAAUCUUGAGAUCGGGCGUUCGACUCGCCCCCGGGAGAUUUUUUCCUCGAGCAA

In this series the parent is B1. Briefly: nonsense suppression (GFP-seq) (ratio to wild type); higher = more function; SUP4oc tRNA, yeast GFP reporter sort-seq. Put shortly: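 Raffinose/galactose medium with 80 mg/L adenine was used to grow yeast carrying genome-integrated tRNA variants (~3% random-mutation library), RFP, and a galactose-driven GFP ochre reporter. Cells went into GFP/RFP bins, which were Illumina-sequenced, and variants with ≥100 reads and ≥30 cells were scored. Nonsense suppression (GFPSEQ) is the per-bin median GFP/RFP weighted by estimated cell share and expressed relative to the unmutated parent tRNA.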
With A33C U55C C56U G66U C79G, the nonsense suppression is ≤ 0.026.
Consider A14G A33G G69C, for which the nonsense suppression was ≤ 0.026.
With G61A G73C, the nonsense suppression is ≤ 0.026.
With A13G A24C U58A C68U C79G, the nonsense suppression is ≤ 0.026.
For the variant U16G C77A, the nonsense suppression is ≤ 0.026.
As for G7A G26U A60G, the nonsense suppression is ≤ 0.026.
For C3U C5U U8C C79G, the nonsense suppression was ≤ 0.026.
As to G6C G59U G66C G78A, the nonsense suppression is ≤ 0.026.
Turning to G7A U71C, the nonsense suppression is ≤ 0.026.
Turning to A14G A54G, the nonsense suppression is ≤ 0.026.
The figure for A13C C27A G84A G88U is ≤ 0.026; for U21C U22G G32C A62U it is ≤ 0.026; for C5A C11U C34G it is ≤ 0.026.
As for U58C C68G, the nonsense suppression was ≤ 0.026.
Consider A24G A60U, for which the nonsense suppression was ≤ 0.026.
The figure for U8A G61A C72G C81G is ≤ 0.026; for C1G A14U C34G C75A it is ≤ 0.026.
Under A30C A60U U63A G69C stands ≤ 0.026; under G65C C75A G88C, ≤ 0.026; under U8C A31C G61U C75A, ≤ 0.026.
As for A13G G26U C77G, the nonsense suppression is ≤ 0.026.
U4A A14G U35C U57C: the nonsense suppression was ≤ 0.026.
U58A G84C: the nonsense suppression is ≤ 0.026.
On to G18U U22G A31U G69C, for which the nonsense suppression was ≤ 0.026.
The figure for G6A G19C G78A is ≤ 0.026; for G25C it is 0.185; for U71G C83A it is ≤ 0.026.
With G7U A54U U63C G88U, the nonsense suppression was ≤ 0.026.
The figure for U4A U17C G28C U35A C79A C82A is ≤ 0.026; for C3U G18C A30C G61U C79G G84U it is ≤ 0.026; for U16A U55C G61C C68A it is ≤ 0.026.
For U4A G26A, the nonsense suppression was ≤ 0.026.
The figure for U20A C56A G66A is ≤ 0.026.
Consider A9G U76G G86C, for which the nonsense suppression is ≤ 0.026.
Under G61C A89G stands ≤ 0.026; under C3U C12G C82G G86U, ≤ 0.026; under C3G U8C A14U C29U, ≤ 0.026.
Under U2A U20C G65C G85A stands ≤ 0.026.
In the case of C12G C27G U63C, the nonsense suppression was ≤ 0.026.
As to U21A C29G, the nonsense suppression is ≤ 0.026.
Regarding U4G G6U U21C U55C C79G, the nonsense suppression was ≤ 0.026.
For G6C A14U, the nonsense suppression was ≤ 0.026.
The figure for U2A U4A is 0.0323.
Under C5G A33G G65A G66C stands ≤ 0.026; under U8C C11A U21A A30G U70A G73A C81G A89U, ≤ 0.026; under U8C C11A U21A A30G U70A G73A C81G A89G, ≤ 0.026.
Under G25A C56U G59U A62C U71A C79A stands ≤ 0.026; under G10A G65A, ≤ 0.026.
As for C12A G19U G26C C56G G61U, the nonsense suppression is ≤ 0.026.
The figure for U20C C27G is ≤ 0.026; for G18A A23U A62U C77A it is ≤ 0.026; for U20A G86A it is ≤ 0.026.
In the case of C5G A62U C82U, the nonsense suppression is ≤ 0.026.
Regarding C27G A62U, the nonsense suppression is ≤ 0.026.
Turning to A33U G59A, the nonsense suppression is ≤ 0.026.
Under G25A G26U C56G stands 0.0585.
For G18U U21C A24G C34U U55C, the nonsense suppression was ≤ 0.026.
Regarding C29G A60U, the nonsense suppression is ≤ 0.026.
The figure for G7U A23C G25C G26C G67U U70A C77A G86A is ≤ 0.026; for G65C G73C C77A it is ≤ 0.026.
U17C G28U C29A C79A G85C: the nonsense suppression is ≤ 0.026.
As to C5G C56A G61U G88A, the nonsense suppression is ≤ 0.026.
The figure for U16A G25A is ≤ 0.026; for G6A G25U A33G it is ≤ 0.026; for U2A U8G G26A it is ≤ 0.026.
On to U2C G18U G59C A60U C72A G84C G85U, for which the nonsense suppression is ≤ 0.026.
For the variant G6C A14C A31G C34U A60G, the nonsense suppression is ≤ 0.026.
Consider A60U G78C G85A, for which the nonsense suppression is 1.16.
The figure for G28U G66A C68G U71G is ≤ 0.026; for C5G A24G it is ≤ 0.026.
With G25A G26A A30G A31U C77G, the nonsense suppression is ≤ 0.026.
With U21C U35G U57A C79A, the nonsense suppression is ≤ 0.026.
The figure for U8G U22C A23C G26U is ≤ 0.026.
For the variant G66U C68G, the nonsense suppression is ≤ 0.026.
Under C72A G84A stands ≤ 0.026; under G15U G61A G67C C83A, ≤ 0.026.
With A33G U63C, the nonsense suppression is 0.11.
Take U57A G69C: the nonsense suppression was ≤ 0.026.
The figure for C34U G88C is ≤ 0.026; for G15A A33C G65C it is ≤ 0.026; for U2G G10C U20A A24G U35G A74C it is ≤ 0.026.
In the case of G66C G84C A87C, the nonsense suppression is ≤ 0.026.
Under G6C U20C U63C G88A stands ≤ 0.026; under C11U G26A A31U G61U, ≤ 0.026; under C64G G67C, ≤ 0.026.
Under G26C C64G C75U stands ≤ 0.026; under C3A G6U G32U C56G, ≤ 0.026; under A74G C80A, ≤ 0.026.
The figure for A9U G25U A62G is ≤ 0.026.
On to C11U A14C G26C A31G, for which the nonsense suppression was ≤ 0.026.
Under U70G A89U stands ≤ 0.026; under U35G U70A U76G, ≤ 0.026.
Under C12U G26U G84A stands ≤ 0.026; under C11U A13C U70A C75U, ≤ 0.026.
For C27A C64U U71G, the nonsense suppression was ≤ 0.026.
The figure for C34G G88C is ≤ 0.026; for U58G A74G C75A it is ≤ 0.026.
With A14G C83G G86A, the nonsense suppression is ≤ 0.026.
Consider U2C G25U G61C G67C C80A, for which the nonsense suppression is ≤ 0.026.
The figure for U2C G6A C56U is ≤ 0.026; for U4C C5G A14C A31U it is ≤ 0.026; for U22A C79A A87C it is ≤ 0.026.
G15A U71A: the nonsense suppression was ≤ 0.026.
Under U58A A89C stands ≤ 0.026.
The figure for G7U G32C U70C is ≤ 0.026; for G6C A14C G78A it is ≤ 0.026; for G69C C75A C80A it is ≤ 0.026.
The figure for U17G A24U C27U C64A U71G A89U is ≤ 0.026; for C3U U8G C27G U58A it is ≤ 0.026; for C3A U57C G61U it is ≤ 0.026.
As to A14C A60C A87C, the nonsense suppression is ≤ 0.026.
The figure for C1G A9G G18C is ≤ 0.026; for G61U G65U it is ≤ 0.026.
Under A9U G59A U76A stands ≤ 0.026.
On to U8G C12U C29U A74U G86U, for which the nonsense suppression is ≤ 0.026.
Consider A31C G65A C83A, for which the nonsense suppression was ≤ 0.026.
In the case of C1G U4G C29U, the nonsense suppression is ≤ 0.026.
Take U63C C82U: the nonsense suppression was 0.449.
Under U2G C3A G26U G32C U63A A87C stands ≤ 0.026; under U8C G26C U57C G69C, ≤ 0.026; under C5U A62U G69C A87U, ≤ 0.026.
Under G67A U71G stands ≤ 0.026.
Take G19C C27G A33U G88C: the nonsense suppression was ≤ 0.026.
The figure for C29U U57G G85C is ≤ 0.026; for U21A G25C G26U G61U G73C it is ≤ 0.026; for G7C A9U U63C U71A it is ≤ 0.026.
Turning to G25U A33G U71G, the nonsense suppression is ≤ 0.026.
On to C3A A23C G32A, for which the nonsense suppression was ≤ 0.026.
For the variant U58A G88A A89U, the nonsense suppression was ≤ 0.026.
The figure for A62G U70G is ≤ 0.026; for C29A U35A A54U G61C C80U it is ≤ 0.026; for A30C G66U it is ≤ 0.026.
Under U20G G86A stands ≤ 0.026.
Under G7U A14G U35G stands ≤ 0.026; under C12U A60G, 0.406.
Regarding A13U C27A, the nonsense suppression was ≤ 0.026.
Under C1A G10U U57G stands ≤ 0.026.
Consider U8C U57G, for which the nonsense suppression was ≤ 0.026.
The figure for U35A G65U is ≤ 0.026; for G59U C83G it is ≤ 0.026; for C3G A9G G59U it is ≤ 0.026.
Take U8A C68A A74C: the nonsense suppression is ≤ 0.026.
Take U21C A23U G65U: the nonsense suppression is ≤ 0.026.
Under G19U A23U stands ≤ 0.026.
The figure for U20G A24U C68U U70A is ≤ 0.026; for U20G A23U G88U it is ≤ 0.026; for G28C A54U A62C U70A it is ≤ 0.026.
On to A9G U55A, for which the nonsense suppression is ≤ 0.026.
As for A13U A14C G32U G61C, the nonsense suppression is ≤ 0.026.
For the variant U8A C34U A62U G84A, the nonsense suppression is ≤ 0.026.
Consider A9G U16A U55C, for which the nonsense suppression stood at 0.188.
Under U55G U58G stands ≤ 0.026.
The figure for U71G A87G is ≤ 0.026; for A9G G10U U70C A89U it is ≤ 0.026.
The figure for A30C G61C G66C is ≤ 0.026.
For the variant U20C U35C, the nonsense suppression came out at 0.0559.
As for U4G U16A C56G U58C, the nonsense suppression is ≤ 0.026.
Regarding G7C A9C G86U, the nonsense suppression is ≤ 0.026.
For the variant U35G C77A, the nonsense suppression was ≤ 0.026.
For U63C U71A G73U, the nonsense suppression was ≤ 0.026.
As for C5G U22C, the nonsense suppression was ≤ 0.026.
The figure for U2C U4G G19U G26C U57A G73U is ≤ 0.026; for C12A A54C G61A it is ≤ 0.026; for C1A G6C U20A it is ≤ 0.026.
For C3U G6C A9U A13G A23G A60G G69C, the nonsense suppression was ≤ 0.026.
Take A24C G67C U70G C79G: the nonsense suppression was ≤ 0.026.
Under C11G A13G G85A stands ≤ 0.026.
